In general, inhibition refers to the change of the read-out against control, counted positive when it falls.

The list shows a part of the results. Further columns of the screen follow, without active or inactive calls. Most of these compounds were active or inconclusive in the main read-out, so they are no random draw.

For the experiment, the target named is Runt-related transcription factor 1 (Homo sapiens) + Core-binding factor subunit beta (Homo sapiens) (UniProt Q01196+Q13951). Description: inhibitors of RUNX1 Runt–CBFb-SMMHC binding, primary screen, biochemical, FRET, Cerulean-Runt, Venus-CBFb-SMMHC, uHTS (AID 1434).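 Note: 0% = DMSO wells and 100% = wells with excess untagged CBFb-SMMHC; inhibitors lower the FRET ratio by blocking Runt binding to CBFb-SMMHC.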 Particulars: Cerulean-Runt/Venus-CBFb-SMMHC FRET ratio 530/480, 1 h; retest duplicate average; at 20 µM; stronger effect = higher value.
Sequence of UniProt Q01196 (Q01196 whole entry, looked up): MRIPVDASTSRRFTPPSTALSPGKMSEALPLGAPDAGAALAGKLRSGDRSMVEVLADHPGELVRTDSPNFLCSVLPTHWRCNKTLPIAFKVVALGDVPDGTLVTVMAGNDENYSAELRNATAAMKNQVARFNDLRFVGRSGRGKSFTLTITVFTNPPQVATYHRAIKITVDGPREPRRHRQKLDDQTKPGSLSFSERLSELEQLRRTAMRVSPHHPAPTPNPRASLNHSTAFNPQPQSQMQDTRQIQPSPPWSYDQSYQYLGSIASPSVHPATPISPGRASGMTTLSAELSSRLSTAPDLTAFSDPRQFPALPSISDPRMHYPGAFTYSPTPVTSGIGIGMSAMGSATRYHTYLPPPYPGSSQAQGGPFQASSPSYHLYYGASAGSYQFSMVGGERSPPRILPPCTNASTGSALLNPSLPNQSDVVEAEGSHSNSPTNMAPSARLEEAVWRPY
Sequence of UniProt Q01196 (Q13951 whole entry, looked up): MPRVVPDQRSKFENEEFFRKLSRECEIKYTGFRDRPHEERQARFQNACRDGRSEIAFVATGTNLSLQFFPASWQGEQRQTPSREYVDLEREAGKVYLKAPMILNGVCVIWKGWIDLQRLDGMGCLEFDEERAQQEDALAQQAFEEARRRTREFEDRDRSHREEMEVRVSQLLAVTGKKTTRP
As for `NC(=S)c1cc2ccc(O)cc2oc1=O`, the inhibition is 72.9%.

With `CCCCNC(=O)CN1C(=O)c2cccc(N)c2C1=O`, the inhibition is 70.6%.

Turning to `C(=C/c1nccc2c1[nH]c1ccccc12)/c1ccc2c(c1)OCO2`, the inhibition is 69.3%.

Turning to `CCC(C)(C)n1nnnc1C(c1cc2cc3c(cc2[nH]c1=O)OCO3)N1CCN(C)CC1` (stereo not drawn), the inhibition was determined as 75.9%.

`COc1ccc(OC)c(NC(=O)c2cc3oc4ccccc4c3cc2O)c1`: the inhibition is 51.8%.

In the case of `CCOC(=O)c1cc2c(=O)n3ccccc3nc2n(Cc2ccccc2)c1=N`, the inhibition came to 71.5%.

In the case of `Cc1c(Br)c(=O)oc2c(C)c(O)ccc12`, the inhibition is 70%.

In the case of `COc1ccc(C2=CC(c3c(C)nn(-c4ccccc4)c3Cl)n3nnnc3N2)cc1OC` (stereo not drawn), the inhibition is 86.1%.

Turning to `O=[N+]([O-])c1ccc2c(c1)N([O-])C1(CCCCC1)[N+]2=O`, the inhibition was determined as 74.6%.

For `Nc1cccc2c1C(=O)N(C(=O)/C=C/c1cccc(F)c1)C2=O`, the inhibition turned out to be 70.6%.

Consider `Nc1nnc(-c2cc3c(ccc4ccccc43)oc2=O)s1`, for which the inhibition amounted to 70.6%.

Take `N=c1c(C(=O)NCc2ccc(F)cc2)cc2c(=O)n3ccccc3nc2n1CCCN1CCOCC1`: the inhibition came to 72.9%.

With `Cc1cc(C)c2c(=O)n(CC(=O)N3CCC(N4CCCCC4)CC3)sc2n1`, the inhibition came to 54.3%.

For the molecule `CCCCCCCCOc1ccc(C2OC34CCCCC3C(C#N)(C#N)C2(C#N)C(=N)O4)cc1` (stereo not drawn), the inhibition is 63.5%.

On to `CCOC(=O)c1cc2c(=O)n3cccc(C)c3nc2n(CC(C)C)c1=NC(=O)c1ccco1`, for which the inhibition is 70.6%.

On to `CN(C)CCCNS(=O)(=O)c1ccc(N2CCC(c3ccc(Cl)cc3)=N2)cc1`, for which the inhibition was found to be 116%.

Take `CCOC(=O)C1=C(C)NC2=C(C(=O)CC(C)(C)C2)C1c1cccc(C)n1` (stereo not drawn): the inhibition is 86.6%.

With `COc1ccc(-c2cc(=O)oc3cc(OC(=O)C4CCCCC4)c(Cl)cc23)cc1`, the inhibition was determined as 71.5%.

Consider `CCCCn1c(NC(=O)c2ccc(Br)o2)c(S(=O)(=O)c2ccccc2)c2nc3ccccc3nc21`, for which the inhibition is 141%.

As for `CC(C)Sc1nc(N2CCOCC2)c2c(c1C#N)CC(C)(C)N(C)C2`, the inhibition was 72.9%.

On to `CCc1cc2c(CN3CCN(C)CC3)cc(=O)oc2cc1O`, for which the inhibition was determined as 72.9%.

With `CN(C)CCNc1c2c(c(C#N)c3nc4ccccc4n13)CCCC2`, the inhibition was 63.8%.

Regarding `COC(=O)Cc1cc(=O)oc2cc(O)ccc12`, the inhibition turned out to be 95.2%.

On to `CCN1CCc2nc(NC(=O)C(c3ccccc3)c3ccccc3)sc2C1`, for which the inhibition was determined as 164%.

Regarding `COc1ccc(C(=O)N/N=C/c2c(CO)cnc(C)c2O)cc1`, the inhibition is 70.6%.

As for `C=CCn1c(N)c(C(=O)OC(C)CC)c2nc3ccccc3nc21` (stereo not drawn), the inhibition was determined as 137%.

Take `Cc1c2c(n3c(nc4ccccc43)c1C#N)N(CCN(C)C)CC2`: the inhibition was determined as 70.6%.

In the case of `CCC(=O)Nc1cc(C)c(NC(=O)CCc2ccccc2)cn1`, the inhibition was 119%.

For the molecule `COC(=O)C1=CN(C2CCCCC2)C=C(C(=O)OC)C1c1ccc2c(c1)OCO2`, the inhibition turned out to be 82.1%.

For the molecule `CN(C)c1nc(-c2ccccc2)cc(C(F)(F)F)c1C#N`, the inhibition was 88.8%.

In the case of `CC12CCC(=O)N1c1c(sc3nc(N4CCOCC4)c4c(c13)CCCC4)C(=O)N2` (stereo not drawn), the inhibition was 98.5%.

With `CCN1CCc2nc(SCC(=O)Nc3ccc(OC)cc3)c(C#N)cc2C1`, the inhibition turned out to be 95.8%.

Take `c1ccc(CCNc2ccnc3cc4ccccc4cc23)cc1`: the inhibition stood at 70.6%.

For the molecule `CCOCCCn1c(=NC(C)=O)c(C#N)cc2c(=O)n3cccc(C)c3nc21`, the inhibition worked out at 70.6%.

As to `Cc1ccc(C(=O)O)cc1-n1c(C)cc(C=O)c1C`, the inhibition is 70.6%.

`COc1cc(/C=C(\C#N)c2nc3ccccc3[nH]2)c([N+](=O)[O-])cc1OCc1ccccc1`: the inhibition stood at 67.3%.

Turning to `COCCNC(=O)c1c(N)n(CCC2=CCCCC2)c2nc3ccccc3nc12`, the inhibition is 113%.

`CCc1nnc(NS(=O)(=O)c2ccc(N/C=C/C(=O)c3ccc(OC)cc3)cc2)s1`: the inhibition was 50.8%.

With `N#Cc1c(-c2cccc(Br)c2)cc(-c2ccco2)[nH]c1=O`, the inhibition was determined as 112%.

Regarding `CC1(C)N([O-])c2cc([N+](=O)[O-])ccc2[N+]1=O`, the inhibition stood at 87.2%.

Regarding `CC(=O)N(C1=C(Cl)C(=O)c2ccccc2C1=O)C1CCCCC1`, the inhibition worked out at 64.2%.

`CC(C)OC(=O)c1c(N)n(CCCN2CCOCC2)c2nc3ccccc3nc12`: the inhibition stood at 129%.

As for `O=[N+]([O-])c1cccc(N=Cc2sc3ccccc3c2O)c1`, the inhibition was found to be 78.1%.

In the case of `CCCN1CCc2c(sc(NC(=S)NC(=O)c3ccccc3)c2C#N)C1`, the inhibition was 70.6%.

Take `Cc1cccn2c(=O)c3cc(C#N)c(=NC(=O)c4cccs4)n(CCCOC(C)C)c3nc12`: the inhibition worked out at 70.6%.

For `CCOC(=O)C1=C(Cc2ccc(C)cc2)C(=O)c2ccccc2C1=O`, the inhibition amounted to 55.2%.

On to `Cc1nc2c([nH]1)C1(CCN(Cc3ccccc3)CC1)C(C#N)=C(N)O2`, for which the inhibition stood at 85.9%.

In the case of `CCOCCCNC(=S)NCCCNc1nc2c(C)cc(C)cc2cc1C#N`, the inhibition was determined as 86.3%.

In the case of `CCCn1c(=NC(=O)c2ccco2)c(C(=O)OCC)cc2c(=O)n3ccccc3nc21`, the inhibition stood at 72.9%.

Regarding `Cc1ccc(S(=O)(=O)c2cc(C#N)c(=O)[nH]c2N)cc1`, the inhibition came out at 112%.

`CN1CCc2nc(NC(=O)c3cccc(S(=O)(=O)N4CCc5ccccc54)c3)sc2C1`: the inhibition stood at 93.1%.

Turning to `Cc1cccc(-n2c3nc(=O)[nH]c(=O)c-3cc3cc([N+](=O)[O-])ccc32)c1`, the inhibition was found to be 53.2%.

As to `COCCCNC(=O)c1cc2c(=O)n3cccc(C)c3nc2n(C(C)C)c1=N`, the inhibition is 72.9%.

Take `CC(=O)c1cc2cc(O)ccc2o1`: the inhibition came out at 83.4%.

For `CCCCN1C=C(C(=O)OC)C(c2ccccc2Cl)C(C(=O)OC)=C1`, the inhibition amounted to 70.6%.

In the case of `Cc1c(Cl)c(=O)n2c(=O)c(Cl)c(C)n12`, the inhibition stood at 70.6%.

Turning to `CC(C)Cn1nc(NC(=O)c2cccs2)c2cc3ccccc3nc21`, the inhibition is 66.2%.

Consider `CCCCn1c2nc3ccccc3nc2c2c(=N)oc(C)nc21`, for which the inhibition came to 93.9%.

On to `CN1CCc2c(sc3c2C(=O)NC(/C=C\c2ccccc2)N3)C1` (stereo not drawn), for which the inhibition came to 124%.

For the molecule `O=c1nc(/C=C/c2ccc(-c3ccc(F)cc3)o2)cc(C(F)(F)F)[nH]1`, the inhibition stood at 72.9%.

Turning to `CCN(CC)c1ccc2cc(C(N)=O)c(=O)oc2c1`, the inhibition was 71.5%.

For `COc1ccc2nc(N3CCCC3)c(C#N)cc2c1`, the inhibition is 72.9%.

Consider `CN(C)S(=O)(=O)c1cccc(NC(=S)N/N=C/c2cc(Br)ccc2O)c1`, for which the inhibition was 54.2%.

Turning to `Nc1cccc2c1C(=O)N(Cc1cccc(Cl)c1)C2=O`, the inhibition came to 70.6%.

In the case of `COc1ccc2nc3ccccc3nc2c1`, the inhibition was found to be 56.5%.

For `Cc1cc(C)c2nc(NCCCNC(=S)NCCCN(C)C)c(C#N)cc2c1`, the inhibition was determined as 70.6%.

In the case of `C(=C\c1nccc2c1[nH]c1ccccc12)/c1ccccc1`, the inhibition came out at 90.1%.

In the case of `COc1nc(N)c(S(=O)(=O)c2ccccc2C)cc1C#N`, the inhibition came out at 92.3%.

Take `COc1c(O)c(O)c2oc(-c3ccccc3)cc(=O)c2c1OC`: the inhibition was 56.7%.

Regarding `COc1ccc(C2OC34CCCCC3C(C#N)(C#N)C2(C#N)C(=N)O4)cc1` (stereo not drawn), the inhibition amounted to 74.9%.

Turning to `Cc1cccn2c(=O)c3cc(C(=O)NC(C)C)c(=N)n(Cc4ccncc4)c3nc12`, the inhibition was 72.9%.

Take `CCOC(=O)c1c(N)n(C2CC(C)(C)NC(C)(C)C2)c2nc3ccccc3nc12`: the inhibition came to 108%.

In the case of `COCCNc1cc(C)nc2c3c(C)cc(C)nc3nn12`, the inhibition was 77.3%.

Take `CCCCn1c(=NC(=O)c2cccnc2)c(C#N)cc2c(=O)n3cccc(C)c3nc21`: the inhibition is 72.9%.

Consider `O=C(O)c1ccc(N/N=C/c2ccc(-c3cccc(Cl)c3)o2)cc1`, for which the inhibition is 103%.

As for `COc1ccc(OC)c(C2C(C(=O)Nc3nc4ccccc4s3)=C(C)NC3=C2C(=O)CCC3)c1` (stereo not drawn), the inhibition turned out to be 81.7%.

For `Cc1c(O)c(CN2CCCCC2)cc2c3c(c(=O)oc12)CCC3`, the inhibition came to 146%.

Take `CN1/C(=C\C(=O)c2cccs2)Sc2ccccc21`: the inhibition worked out at 96.3%.

Turning to `CCn1cc(C2C3=C(CC(C)(C)CC3=O)N(c3ccccc3)C3=C2C(=O)CC(C)(C)C3)c(C)n1`, the inhibition was determined as 81%.

On to `Nc1ccc2c(C(F)(F)F)cc(=O)oc2c1`, for which the inhibition was determined as 72.9%.

As to `CCN1C=CC2=C(C#N)C(N)C(C#N)(C#N)C(c3ccccc3C(F)(F)F)C2C1` (stereo not drawn), the inhibition came to 71.5%.

Turning to `COc1ccc2ccccc2c1C(O)c1nccn1C` (stereo not drawn), the inhibition is 116%.

Turning to `N#Cc1c(N)sc2c1CCN(CCc1ccccc1)C2`, the inhibition was determined as 137%.

On to `NC(=O)c1cc2ccc(O)cc2oc1=Nc1ccccc1`, for which the inhibition turned out to be 72.9%.

As to `Cc1cc(=O)oc2cc(OC(=O)c3cncc(Br)c3)ccc12`, the inhibition worked out at 54.2%.

`Cc1ccc(S(=O)(=O)NCCC(=O)Oc2ccc3ccc(=O)oc3c2)cc1`: the inhibition amounted to 67.2%.

Regarding `Cc1cccc(Oc2nc3ccccn3c(=O)c2/C=C(\C#N)C(=O)NC2CCS(=O)(=O)C2)c1` (stereo not drawn), the inhibition worked out at 71.5%.

Turning to `CCCn1c(C)nc2c(c1=O)c1nc3ccccc3nc1n2CCC1=CCCCC1`, the inhibition was 82.7%.

Regarding `CCc1nc2sc(C(C)=O)c(N)c2c2c1CCCC2`, the inhibition amounted to 122%.

For `COC(=O)c1scc2c(=O)cc(C(F)(F)F)[nH]c12`, the inhibition turned out to be 70.6%.

As for `Cc1c(O)ccc2c(CN3CCN(C/C=C/c4ccccc4)CC3)cc(=O)oc12`, the inhibition amounted to 70.6%.

With `COCCN1C=C(C(=O)OC)C(c2ccc(Cl)cc2)C(C(=O)OC)=C1`, the inhibition amounted to 164%.

As for `Cc1ccc(S(=O)(=O)c2cc3c(=O)n4cccc(C)c4nc3n(CC3CCCO3)c2=N)cc1C` (stereo not drawn), the inhibition amounted to 132%.

Turning to `Cc1cc(C)c2c(N)c(C(=O)Nc3ncc(C)s3)sc2n1`, the inhibition turned out to be 96.7%.

Take `Cc1nc2nc(-c3ccccc3)cn2nc1C`: the inhibition was 71.5%.

Consider `CCOC(=O)c1cc2c(=O)n3ccccc3nc2n(CC(C)C)c1=NC(=O)c1ccco1`, for which the inhibition came out at 71.5%.

In the case of `CCCCN(CC)Cc1c(O)ccc2c3c(c(=O)oc12)CCC3`, the inhibition was 88.5%.

As to `CCN1C(=O)/C(=C/C=C2/CCCN2C)OC1=S`, the inhibition came to 110%.

In the case of `CCN1C=C(C(=O)OC)C(c2cccc(OC)c2OC)C(C(=O)OC)=C1`, the inhibition was 70.6%.

With `CCN(CC)CCN1C2=C(C(=O)CC(C)(C)C2)C(c2cccc(F)c2)C2=C1CC(C)(C)CC2=O`, the inhibition is 71.6%.

Turning to `Cc1ccsc1C1NC(=O)c2c(sc3c2CCN(C)C3)N1` (stereo not drawn), the inhibition worked out at 114%.

Take `COc1cc2ccc(=O)oc2c(O)c1OCC=C(C)C`: the inhibition stood at 72.9%.

For the molecule `Cc1ccc(C(=O)/C=C\C(=O)c2ccc(C)cc2)cc1`, the inhibition is 54.8%.

Consider `COc1cc(-c2nc3ccccc3s2)ccc1O`, for which the inhibition was 150%.

As to `Cc1cc(C)c2c(N)c(C(=O)C(C)(C)C)sc2n1`, the inhibition turned out to be 116%.

For the molecule `COc1ccc(N=Cc2c(O)n(-c3ccc(OC)cc3)c(=O)c3ccccc23)cc1`, the inhibition turned out to be 70.6%.

On to `COc1ccc(-c2cc(-c3nnc(-c4ccncc4)o3)c3ccccc3n2)cc1`, for which the inhibition was determined as 59.4%.

Regarding `CN1CCc2nc(NC(=O)c3cccc(OC(F)F)c3)sc2C1`, the inhibition came out at 77.3%.

The values above are taken from PubChem BioAssay AID1434 (Sanford-Burnham Center for Chemical Genomics, 2008).
